# Where “and” joins values, the source holds several entries; their conditions need not be identical. Equal values may be shown once. Inconclusive means that the source gave no clear call. Such entries were picked first, then a sample of the others. For part of these data: Potencies beside an inconclusive call are fits to weak or partial responses and may not hold up. A structure can be active in one record and inactive in another. Calls of active or inactive are those of the source. Unless noted, calls follow the shape of the dose curve; as a rule, active = well fitted curve in the direction sought with a large enough effect in the repeat runs; inconclusive = weak or mixed curves; inactive = no such curve, though single readings can be large; an effect the other way counts as inactive or inconclusive.
# Experiments:
# [1] = qHTS assay for identifying genotoxic compounds that show differential cytotoxicity against isogenic chicken DT40 cell lines with known DNA damage response pathways - Rev3 mutant cell line (AID 743014); conditions: chicken DT40 Rev3-/- viability, CellTiter-Glo, 40 h; activity, negative = cytotoxicity: at 68.4 µM (top of the series) unless noted; also: nearly all actives have a fitted effect of over 55% in size; also: potency is read from the fitted curve at half-maximal effect
# [2] = target: Androgen receptor (Homo sapiens) (UniProt P10275); test: qHTS assay to identify small molecule antagonists of the androgen receptor (AR) signaling pathway (AID 743035; active = well fitted inhibition curve with a large enough effect in the signal ratio in the repeat runs, not every such curve was filed as active; inconclusive = weak or mixed curves, or effect the other way; inactive = no such curve, though single readings can be large or run the other way; the % refers to the signal ratio; also: potency is read from the fitted curve at half-maximal effect); conditions: HEK293 AR-UAS-bla, R1881-stimulated, beta-lactamase FRET, 16 h; activity change, negative = inhibition: at 58.5 µM (top of the series) unless noted
# How it was run: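 Antagonist mode: AR-bla HEK293 cells co-treated with test compounds and agonist R1881 for 16 h at 37C, 5% CO2. Beta-lactamase activity read as FRET fluorescence after 2 h room-temperature substrate loading.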
# [3] = target: Androgen receptor (Homo sapiens) (UniProt P10275); test: qHTS assay to identify small molecule agonists of the androgen receptor (AR) signaling pathway (AID 743036; active = well fitted activation curve with a large enough effect in the signal ratio in the repeat runs, with a control signal flat, not every such curve was filed as active; inconclusive = weak or mixed curves, or effect the other way; inactive = no such curve, though single readings can be large or run the other way; the % refers to the signal ratio; also: potency is read from the fitted curve at half-maximal effect); conditions: HEK293 AR-UAS-bla GripTite, beta-lactamase FRET ratio, 16 h; activation: at 62.4 µM (top of the series) unless noted
# How it was run: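 Fluorescence from a beta-lactamase FRET substrate served as read-out in AR-UAS-bla GripTite HEK293 cells. Cells were treated with DMSO-dissolved compounds for 16 h at 37C, then with LiveBLAzer B/G substrate for 2 h at room temperature.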
# [4] = qHTS assay to identify small molecule antagonists of the estrogen receptor alpha (ER-alpha) signaling pathway - cell viability counter screen (AID 743074; calls by dose curve;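 also: HEK293 cells carrying ER-alpha-UAS-bla reporter stimulated with 17beta-estradiol; nearly all actives have a fitted effect of over 45% in size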; also: potency is read from the fitted curve at half-maximal effect; as to activity, negative = cytotoxicity: % is scaled to controls: 0 for no effect and ±100 for the full control effect)
# [5] = qHTS assay to identify small molecule antagonists of the estrogen receptor alpha (ER-alpha) signaling pathway using the BG1 cell line - cell viability counter screen (AID 743081);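 also: compound given together with 17beta-estradiol as the ER stimulus; nearly all actives have a fitted effect of over 45% in size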; also: potency is read from the fitted curve at half-maximal effect
# [6] = target: Aromatase (Homo sapiens) (UniProt P11511); test: qHTS assay to identify aromatase inhibitors (AID 743083); also: potency is read from the fitted curve at half-maximal effect; nearly all actives have a fitted effect of over 55% in size
# [7] = qHTS assay to identify aromatase inhibitors - cell viability counter screen (AID 743084); conditions: MCF-7 aro ERE viability, CellTiter-Fluor, 24 h; activity change, negative = cytotoxicity: at 70.3 µM (top of the series);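 also: cells stimulated with testosterone during compound exposure; nearly all actives have a fitted effect of over 55% in size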; also: potency is read from the fitted curve at half-maximal effect; as to activity change, negative = cytotoxicity: % is scaled to controls: 0 for no effect and ±100 for the full control effect
# [8] = qHTS assay to identify small molecule antagonists of the androgen receptor (AR) signaling pathway using the MDA cell line - cell viability counter screen (AID 743041; also: nearly all actives have a fitted effect of over 45% in size; also: potency is read from the fitted curve at half-maximal effect); conditions: MDA-kb2 viability, CellTiter-Fluor, 16 h, cells co-treated with R1881 androgen agonist; viability change, negative = cytotoxic: at 70.3 µM (top of the series) unless noted
# How it was run: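 Cytotoxicity counter screen: MDA-kb2 AR-luc cells, compound + R1881, 16 h, 37C, 0% CO2; CellTiter-Fluor added at 15.5 h, fluorescence read after 30 min.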
# [9] = qHTS assay to identify small molecule antagonists of the thyroid receptor (TR) signaling pathway - cell viability counter screen (AID 743064); conditions: GH3.TRE-Luc viability, CellTiter-Fluor, 24 h; also: nearly all actives have a fitted effect of over 50% in size; also: potency is read from the fitted curve at half-maximal effect
# How it was run: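 Fluorescence from CellTiter-Fluor, added after 23.5 h exposure at 37 °C, reported viability of GH3.TRE-Luc cells co-treated with compound and 1 nM T3. Measured in the same wells as the luciferase TR readout.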
# [10] = qHTS assay to identify small molecule antagonists of the thyroid receptor (TR) signaling pathway (AID 743065); also: nearly all actives have a fitted effect of over 55% in size; also: potency is read from the fitted curve at half-maximal effect; as to activity, negative = inhibition: % is scaled to controls: 0 for no effect and ±100 for the full control effect
# How it was run: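 GH3.TRE-Luc rat pituitary cells (two TREs driving luciferase) were dosed with compound, then stimulated with 1 nM T3 (final) for 23.5 h at 37 C. ONE-Glo luminescence was the read-out, with CellTiter-Fluor fluorescence as the cytotoxicity counter-screen.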
# [11] = target: Estrogen receptor (Homo sapiens) (UniProt P03372); test: qHTS assay to identify small molecule antagonists of the estrogen receptor alpha (ER-alpha) signaling pathway (AID 743069; active = well fitted curve in the direction sought with a large enough effect in the signal ratio in the repeat runs, not every such curve was filed as active; inconclusive = weak or mixed curves, or effect the other way; inactive = no such curve, though single readings can be large or run the other way; the % refers to the signal ratio; also: potency is read from the fitted curve at half-maximal effect); conditions: HEK293 ER-alpha-UAS-bla, beta-lactamase ratio, antagonist mode; activity, negative = inhibition: at 69.4 µM (top of the series) unless noted
# How it was run: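 Beta-lactamase FRET fluorescence is read after 2 hr at room temperature with LiveBLAzer B/G substrate. Before that, ER-alpha-bla HEK293 cells sit 4 hr after plating, then receive compound plus 17beta-estradiol and incubate 18 hr at 37C.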
# [12] = target: Estrogen receptor (Homo sapiens) (UniProt P03372); test: qHTS assay to identify small molecule agonists of the estrogen receptor alpha (ER-alpha) signaling pathway using the BG1 cell line (AID 743079); conditions: BG1Luc4E2 cells, ERE-luciferase agonist, 22 h; activation: at 70.3 µM (top of the series) unless noted; also: nearly all actives have a fitted effect of over 20% in size; also: potency is read from the fitted curve at half-maximal effect
# [13] = qHTS assay to identify small molecule antagonists of the estrogen receptor alpha (ER-alpha) signaling pathway using the BG1 cell line (AID 743080; calls by dose curve;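 also: BG1 cells stimulated with 17beta-estradiol alongside compound; potency is read from the fitted curve at half-maximal effect; nearly all actives have a fitted effect of over 25% in size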); conditions: BG1Luc4E2 ERE-luciferase antagonist mode, luminescence; activity change, negative = inhibition: at 70.3 µM (top of the series) unless noted
# How it was run: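 Luciferase inhibition measured with ONE-Glo after 30 min at RT in BG1Luc4E2 cells given test compounds and 17beta-estradiol for 21.5 h at 37 C; CellTiter-Fluor viability read in the same wells beforehand.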
# [14] = target: Estrogen receptor (Homo sapiens) (UniProt P03372); test: qHTS assay to identify small molecule agonists of the estrogen receptor alpha (ER-alpha) signaling pathway (AID 743075; calls by dose curve;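 also: HEK293 GripTite cells with ER-alpha and UAS-driven beta-lactamase reporter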; also: potency is read from the fitted curve at half-maximal effect)
# [15] = system: thyroid hormone receptor (rat, GH3 cells); test: qHTS assay to identify small molecule agonists of the thyroid receptor (TR) signaling pathway (AID 743066; calls by dose curve; also: % is scaled to controls: 0 for no effect and ±100 for the full control effect); conditions: GH3.TRE-Luc cells, TR agonist luciferase, 24 h; activation: at 83.9 µM (top of the series) unless noted
# [16] = activity change, negative = cytotoxic: at 70.3 µM (top of the series) unless noted
# Tags tell the direction and shape of the fitted curve or compound fluorescence and quenching.
# Sequence of UniProt P10275 (P10275 whole entry, looked up): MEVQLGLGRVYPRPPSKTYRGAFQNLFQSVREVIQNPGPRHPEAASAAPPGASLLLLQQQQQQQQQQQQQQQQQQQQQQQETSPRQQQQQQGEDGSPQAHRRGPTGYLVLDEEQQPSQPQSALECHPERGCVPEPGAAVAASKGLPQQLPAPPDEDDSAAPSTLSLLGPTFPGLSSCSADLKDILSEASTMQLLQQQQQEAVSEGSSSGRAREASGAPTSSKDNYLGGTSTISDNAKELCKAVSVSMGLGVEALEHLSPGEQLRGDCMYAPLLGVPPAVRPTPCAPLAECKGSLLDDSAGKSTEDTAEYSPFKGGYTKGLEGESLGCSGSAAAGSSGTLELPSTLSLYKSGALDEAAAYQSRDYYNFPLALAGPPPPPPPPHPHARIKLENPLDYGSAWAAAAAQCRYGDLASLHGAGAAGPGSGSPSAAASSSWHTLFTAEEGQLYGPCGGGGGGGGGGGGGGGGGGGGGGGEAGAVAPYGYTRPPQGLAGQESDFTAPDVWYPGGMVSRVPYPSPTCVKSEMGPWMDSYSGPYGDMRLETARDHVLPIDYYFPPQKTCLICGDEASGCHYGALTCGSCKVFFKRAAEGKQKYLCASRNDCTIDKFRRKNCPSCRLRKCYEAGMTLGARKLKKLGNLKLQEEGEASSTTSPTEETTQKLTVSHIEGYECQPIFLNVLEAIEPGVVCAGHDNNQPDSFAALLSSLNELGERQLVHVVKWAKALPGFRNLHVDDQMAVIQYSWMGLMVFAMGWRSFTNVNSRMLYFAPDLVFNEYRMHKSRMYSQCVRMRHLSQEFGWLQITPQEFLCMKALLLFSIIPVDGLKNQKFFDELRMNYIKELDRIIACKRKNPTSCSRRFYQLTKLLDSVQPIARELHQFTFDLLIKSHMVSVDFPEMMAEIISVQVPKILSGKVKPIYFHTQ
# Sequence of UniProt P03372 (P03372 whole entry, looked up): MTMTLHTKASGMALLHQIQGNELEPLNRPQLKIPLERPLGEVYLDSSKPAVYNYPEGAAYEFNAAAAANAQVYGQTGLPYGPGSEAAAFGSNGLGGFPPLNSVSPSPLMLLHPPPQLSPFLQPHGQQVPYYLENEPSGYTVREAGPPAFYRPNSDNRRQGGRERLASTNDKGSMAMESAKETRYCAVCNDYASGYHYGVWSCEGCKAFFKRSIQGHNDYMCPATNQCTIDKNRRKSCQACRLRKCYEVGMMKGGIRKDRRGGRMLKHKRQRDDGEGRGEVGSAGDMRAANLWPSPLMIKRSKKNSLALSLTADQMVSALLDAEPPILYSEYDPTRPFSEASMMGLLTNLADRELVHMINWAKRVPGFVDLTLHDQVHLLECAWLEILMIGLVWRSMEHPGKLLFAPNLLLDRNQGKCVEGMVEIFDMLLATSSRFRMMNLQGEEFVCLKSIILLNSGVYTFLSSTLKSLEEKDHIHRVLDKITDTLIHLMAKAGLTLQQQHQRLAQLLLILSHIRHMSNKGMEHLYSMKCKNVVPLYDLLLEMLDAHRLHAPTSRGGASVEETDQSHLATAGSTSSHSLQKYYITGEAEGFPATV
# Sequence of UniProt P11511 (P11511 whole entry, looked up): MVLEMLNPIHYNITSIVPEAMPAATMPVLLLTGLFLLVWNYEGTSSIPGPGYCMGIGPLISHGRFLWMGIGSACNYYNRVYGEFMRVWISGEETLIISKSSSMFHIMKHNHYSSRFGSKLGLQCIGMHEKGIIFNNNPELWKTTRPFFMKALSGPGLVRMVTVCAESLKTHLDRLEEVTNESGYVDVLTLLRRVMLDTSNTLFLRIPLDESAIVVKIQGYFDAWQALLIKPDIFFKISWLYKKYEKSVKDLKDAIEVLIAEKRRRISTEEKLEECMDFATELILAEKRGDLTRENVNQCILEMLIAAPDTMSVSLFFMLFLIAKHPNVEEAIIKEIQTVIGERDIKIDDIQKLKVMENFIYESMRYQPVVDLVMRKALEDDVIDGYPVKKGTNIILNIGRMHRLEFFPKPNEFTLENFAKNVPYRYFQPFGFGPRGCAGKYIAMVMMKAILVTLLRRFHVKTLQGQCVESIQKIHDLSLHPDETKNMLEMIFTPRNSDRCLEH
compound,measurement,setting,value
O=C(OCC1CO1)C1CCCCC1C(=O)OCC1CO1 (centres undefined),Potency,[1],active: 0.77 µM
same,Potency,[2],inconclusive: 55 µM
same,Potency,[3],"inconclusive: 61.8 µM [fluorescent, partial curve, poor fit]"
same,Potency,[4],inactive
same,Potency,[5],"inconclusive: 68.7 µM [cytotoxic, partial curve, poor fit]"
same,Potency,[6],"inconclusive: 68.7 µM [inhibitor, single point]"
same,Potency,[7],active: 48.6 µM
Cc1cc(C(C#N)c2ccc(Cl)cc2)c(Cl)cc1NC(=O)c1cc(I)cc(I)c1O (centres undefined),Potency,[1],"inconclusive: 33.5 µM [cytotoxic, single point]"
same,Potency,[8],"inconclusive: 33.5 µM [cytotoxic, single point]"
same,Potency,[9]; [16],active: 23.7 µM
same,Potency,[10],active: 26.6 µM
same,Potency,[11],"inconclusive: 8.49 µM [rising, full curve]"
same,Potency,[4],active: 5.35 µM
same,Potency,[12],inconclusive: 29.8 µM [inhibitor]
same,Potency,[13],"inconclusive: 26.6 µM [falling, partial curve, poor fit]"
same,Potency,[6],"inconclusive: 26.6 µM [inhibitor, partial curve]"
same,Potency,[7],inactive
O=C1CCCCCCCCCCCCCCCO1,Potency,[1],"inconclusive: 0.611 µM [rising, single point]"
same,Potency,[10],inactive
same,"activity, negative = inhibition",[11],inconclusive: 22.6%
O=C(Oc1ccccc1)c1ccc(O)cc1,Potency,[1],"inconclusive: 69 µM [rising, partial curve, poor fit]"
same,"activity change, negative = cytotoxic",[9]; [16],inconclusive: -0.368%
same,"activity change, negative = cytotoxic",[9]; at 95 µM (top of the series),inactive: 12%
CC[C@H]1OC(=O)[C@H](C)[C@@H](O[C@H]2C[C@@](C)(OC)[C@@H](O)[C@H](C)O2)[C@H](C)[C@@H](O[C@@H]2O[C@H](C)C[C@H](N(C)C)[C@H]2O)[C@](C)(O)C[C@@H](C)/C(=N\OCOCCOC)[C@H](C)[C@@H](O)[C@]1(C)O,Potency,[1],"inconclusive: 11.4 µM [cytotoxic, partial curve, poor fit] and inactive and active: 8.07 µM"
same,Potency,[9]; [16],active: 32.1 µM
same,Potency,[10],"inconclusive: 40.4 µM [inhibitor, single point]"
same,Potency,[11],inactive
same,Potency,[5],active: 18.1 µM
same,Potency,[7],active: 10.2 µM
CCCN1CCCC[C@H]1C(=O)Nc1c(C)cccc1C,Potency,[1],inactive
same,Potency,[9]; [16],inactive
OCCN(CCO)CCN(CCO)CCO,Potency,[1],"inconclusive: 15.4 µM [cytotoxic, partial curve, poor fit]"
same,Potency,[3],"inconclusive: 61.6 µM [falling, partial curve, poor fit]"
same,Potency,[10],inactive
same,activation,[12],inconclusive: 15.4% [phenotype inactive]
CCCCNC(N)=O,Potency,[1],inactive
same,Potency,[8],inactive
O=C(NCCN1CCOCC1)c1ccc(Cl)cc1,Potency,[1],inactive
same,Potency,[9]; [16],"inconclusive: 29.8 µM [rising, single point]"
same,Potency,[5],"inconclusive: 7.5 µM [rising, full curve, poor fit]"
C=CC(=O)O,Potency,[1],inactive
same,Potency,[9]; [16],"inconclusive: 12.6 µM [rising, partial curve, poor fit]"
same,Potency,[11],inactive
same,Potency,[14],inactive
CCCCN1CCCC1C(=O)Nc1c(C)cc(C)cc1C (centres undefined),Potency,[1],active: 23.7 µM
same,Potency,[11],"inconclusive: 10.7 µM [activator, partial curve, poor fit]"
CC(=O)CCc1ccccc1,Potency,[1],inactive
same,Potency,[8],inactive
same,Potency,[4],"inconclusive: 0.0549 µM [rising, full curve, poor fit]"
Cc1ccc(NC(=O)N(C)C)cc1NC(=O)N(C)C,Potency,[1],inactive
same,"activity change, negative = cytotoxic",[9]; [16],inconclusive: 14.8%
same,Potency,[10],inactive
CCCCOC(=O)CCCCCCCC(=O)OCCCC,Potency,[1],inconclusive: 68.6 µM [cytotoxic]
same,Potency,[9]; [16],inactive
O=C1C(O)=C(O)C(=O)C(O)=C1O,Potency,[1],"inconclusive: 18.8 µM [cytotoxic, partial curve, poor fit]"
same,Potency,[9]; [16],inactive
C1COCCN1,Potency,[1],"inconclusive: 68.6 µM [cytotoxic, single point]"
same,Potency,[9]; [16],"inconclusive: 0.58 µM [rising, single point]"
same,Potency,[10],inactive
same,Potency,[14],"inconclusive: 369 nM [falling, full curve]"
same,activation,[12],inconclusive: 25.1% [phenotype inactive] [at 95 µM]
CCCCCCC(O)CCCCCCCCCCC(=O)OC (centres undefined),"activity, negative = cytotoxicity",[1],inconclusive: -31.4% [cytotoxic]
same,Potency,[15],inactive
same,Potency,[5],inactive
NC(=O)C(c1ccccc1)(c1ccccc1)[C@@H]1CCN(CCc2ccc3c(c2)CCO3)C1,Potency,[1],active: 18.8 µM
same,Potency,[8],inconclusive: 33.5 µM [cytotoxic]
same,Potency,[9]; [16],active: 6.68 µM
same,activation,[15],inconclusive: -5.94% [phenotype inactive]
same,Potency,[5],inactive

# Reference: PubChem BioAssay (Tox21)
